Test results reported in a collection of fitness landscapes (doi:10.1126/science.1257360).
This is one part of the list.

B1: PhoQ; a variant is named by its letters at X, in order, P23837 (parent)
chain: MKKLLRLFFPLSLRVRFLLATAAVVLVLSLAYGMVALIGYSVSFDKTTFRLLRGESNLFYTLAKWENNKLHVELPENIDKQSPTMTLIYDENGQLLWAQRDVPWLMKMIQPDWLKSNGFHEIEADVNDTSLLLSGDHSIQQQLQEVREDDDDAEMTHSVAVNVYPATSRMPKLTIVVVDTIPVELKSSYMVWSWFIYVLSANLLLVIPLLWVAAWWSLRPIEALAKEVRELEEHNRELLNPATTRELTSLVRNLNRLLKSERERYDKYRTTLTDLTHSLKTPLXXLQXXLRSLRSEKMSVSDAEPVMLEQISRISQQIGYYLHRASMRGGTLLSRELHPVAPLLDNLTSALNKVYQRKGVNISLDISPEISFVGEQNDFVEVMGNVLDNACKYCLEFVEISARQTDEHLYIVVEDDGPGIPLSKREVIFDRGQRVDTLRPGQGVGLAVAREITEQYEGKIVAGESMLGGARMEVIFGRQHSAPKDE

Variants of: B1
Assay: enrichment ratio after two sorts for PhoP signalling (ratio (wild type AVST 3.29)); higher = more functional
Details: with PhoP (E. coli)

Variant	enrichment ratio
GSRT	≤ 0.25
VCRG	≤ 0.25
ALQK	≤ 0.25
ANKC	≤ 0.25
AMLL	14.2
TRNC	≤ 0.25
YQLN	≤ 0.25
NAGG	≤ 0.25
MNWK	≤ 0.25
GPAY	≤ 0.25
HWRD	≤ 0.25
RAHG	≤ 0.25
ECDQ	≤ 0.25
HWKA	≤ 0.25
HRPM	≤ 0.25
WREM	≤ 0.25
PCTH	≤ 0.25
HHCW	≤ 0.25
IMEV	≤ 0.25
VCWM	≤ 0.25
WYNA	≤ 0.25
INIH	≤ 0.25
HHFT	≤ 0.25
SRKH	≤ 0.25
HPSN	≤ 0.25

Variant	enrichment ratio
MEVD	≤ 0.25
DTTS	≤ 0.25
TDPR	≤ 0.25
SSNE	≤ 0.25
DLEY	≤ 0.25
SYKP	≤ 0.25
DHDC	≤ 0.25
SERL	≤ 0.25
EVRK	≤ 0.25
SHCT	≤ 0.25
FLAE	≤ 0.25
TMVY	≤ 0.25
YTSD	≤ 0.25
WYAI	≤ 0.25
CIIC	≤ 0.25
WAWY	≤ 0.25
GQRT	≤ 0.25
QLDR	≤ 0.25
FELA	2.53
IREE	≤ 0.25
YSYK	≤ 0.25
KEMR	≤ 0.25
PMYC	≤ 0.25
RVRK	≤ 0.25
SQWC	≤ 0.25

Variant	enrichment ratio
EAKF	≤ 0.25
FVKN	≤ 0.25
AEYT	2.16
SQSD	≤ 0.25
CSFL	≤ 0.25
TRNP	≤ 0.25
VTMK	≤ 0.25
PITV	≤ 0.25
KVMA	≤ 0.25
FHVQ	≤ 0.25
SKPV	≤ 0.25
LASY	≤ 0.25
VGFW	≤ 0.25
WIKA	≤ 0.25
DMQH	≤ 0.25
TGLQ	9.97
QGLI	13.3
SMQR	≤ 0.25
GECS	7.23
AIPD	≤ 0.25
VYKS	≤ 0.25
RQSS	≤ 0.25
FVGK	≤ 0.25
GYTV	≤ 0.25
QYFG	≤ 0.25

Variant	enrichment ratio
VSVW	≤ 0.25
HMCM	≤ 0.25
LSSG	≤ 0.25
HQVF	≤ 0.25
FMTQ	≤ 0.25
DQDL	≤ 0.25
DFEQ	≤ 0.25
SAPT	≤ 0.25
IMAV	≤ 0.25
ACLH	5.86
NNCD	≤ 0.25
HTDY	≤ 0.25
GSMR	≤ 0.25
SKII	7.85
QHQR	≤ 0.25
NYDH	≤ 0.25
LEMH	≤ 0.25
AIGR	0.485
PYHF	≤ 0.25
NPNT	≤ 0.25
SCSQ	7.71
YHWF	≤ 0.25
NDFS	≤ 0.25
WPFI	≤ 0.25
EPFF	≤ 0.25

Variant	enrichment ratio
CSFY	≤ 0.25
GRNY	≤ 0.25
TKRP	≤ 0.25
DTNF	≤ 0.25
NQFT	≤ 0.25
PPQT	≤ 0.25
LIIH	≤ 0.25
DCPR	≤ 0.25
AAQP	≤ 0.25
ETFD	≤ 0.25
RAPP	≤ 0.25
GLYA	≤ 0.25
MMLW	≤ 0.25
HPKA	≤ 0.25
DQMF	≤ 0.25
SSHP	≤ 0.25
INLL	3.45
IFHA	≤ 0.25
QFGY	≤ 0.25
MPNP	≤ 0.25
RRMA	≤ 0.25
WCRE	≤ 0.25
IKEM	≤ 0.25
KTEN	≤ 0.25
YRCN	≤ 0.25

Variant	enrichment ratio
FWAR	≤ 0.25
LTDD	≤ 0.25
KHGK	≤ 0.25
YLVY	≤ 0.25
IIVE	≤ 0.25
VSPR	≤ 0.25
GMMH	≤ 0.25
SLVM	2.29
NKGW	≤ 0.25
GFTD	≤ 0.25
VQQK	≤ 0.25
FYNE	≤ 0.25
RGGT	≤ 0.25
PYCT	≤ 0.25
LDPK	≤ 0.25
NRCY	≤ 0.25
SFCM	2.09
QGDY	7.92
FQHK	≤ 0.25
ISPW	≤ 0.25
PTHL	≤ 0.25
IRGS	≤ 0.25
YFWY	≤ 0.25
LGLH	≤ 0.25
IHCI	≤ 0.25

Variant	enrichment ratio
VESK	≤ 0.25
KPQP	≤ 0.25
DESG	≤ 0.25
TVVD	≤ 0.25
RRFP	≤ 0.25
HDCE	≤ 0.25
TRAA	≤ 0.25
RCVI	≤ 0.25
PWHF	≤ 0.25
FTGC	≤ 0.25
ERNF	≤ 0.25
YVHS	≤ 0.25
GVFL	≤ 0.25
TDPY	≤ 0.25
NSVW	≤ 0.25
MWYL	≤ 0.25
NALK	≤ 0.25
NETD	≤ 0.25
SWWE	≤ 0.25
KAGS	≤ 0.25
NGTL	≤ 0.25
REHR	≤ 0.25
GWLI	≤ 0.25
GWVC	≤ 0.25
YTIW	≤ 0.25

Variant	enrichment ratio
KINQ	≤ 0.25
ALYL	≤ 0.25
YFEI	≤ 0.25
RNTT	≤ 0.25
LWNN	≤ 0.25
LGNL	≤ 0.25
QKDM	≤ 0.25
QPVV	≤ 0.25
HIIF	≤ 0.25
LKLN	≤ 0.25
HGWL	≤ 0.25
QRPR	≤ 0.25
LFAA	≤ 0.25
VPDN	≤ 0.25
AEHP	≤ 0.25
RPWW	≤ 0.25
LQMC	≤ 0.25
GACI	≤ 0.25
SGQR	≤ 0.25
KVEW	≤ 0.25
